B1: CPEB3 Ribozyme (parent)
chain: UAACAGGGGGCCACAGCAGAAGCGUUCACGUCGCAGCCCCUGUCAGAUUCUGGUGAAUCUGCGAAUUCUGCUGUAUAUCUC

The source gives no read counts; variants with many changes may rest on few reads.

This data set covers variants of B1. Kind of data set: self-cleavage, relative activity (ratio to wild type); higher = more cleavage; in vitro, sequencing. An outline of the steps:
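For each CPEB3 ribozyme variant, relative activity is its cleaved/total read fraction divided by the unmutated ribozyme's. Barcoded error-prone PCR libraries were transcribed by T7 RNA polymerase (5 hours, 37°C) and held in DNase I for 15 min before an EDTA stop, with cleavage occurring throughout. Template-switching reverse transcription and Illumina sequencing were used to read the RNAs. A 5-read minimum applied, and results are the mean of three batches.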
As for UAACAGGGGGCCACCGCAGAAGCGUUUACGUCGCAGCCCCUGUCAGAUUCCGGUGAAUCUGCGAAUUCUGCUGUAUAUCUC [A15C C27U U51C], the self-cleavage turned out to be 0.19. To UAACAGGGGGCCACCGCAGAAGCGUUUACGUCGCAGCCCCUGUCAGAUUCUGGUGAAUCUGCGAAUUCAGCUGUAUAUCUC [A15C C27U U69A] belongs 0.17; to UAACAGGGGGCCACGGCGGAAGCGCUCACGACGCAGCCCCUGUCAGACUCUGGUGAAUCUGCGAAUUCUGCUGUAUAUCUC [A15G A18G U25C U31A U48C], 0.05; to UAACAGGGGGCCACCGCGGAGGCGUUCACGUCACAGCCCCUGUCAGAUUCUGGUGAAUCAGCGAAUCCUGCUGUACAUCUC [A15C A18G A21G G33A U60A U67C U76C], 0.1. For UAACAGGGGGCCACGGCGGAAGCGCUCACGUCGCAGCCCCUGCCAGAUUCUGGUGAAUCUGCGAACUCUGCUGUAUAUCUC [A15G A18G U25C U43C U66C] the value was 0.34. As to UAACAGGGGGCCACCGCAGAAGCGUUCACGUCGCAGCCCCAGUCAGAUUCAGGUGAAUCUGCGGAUUCUGCUGUAUAUCUC [A15C U41A U51A A64G], the self-cleavage came to 0.22. For UAACAGGGGGCCACGGCGGAAGCGUUCACGUCGCAGCCCCCGUCAGACUCUGGUGAAUCUGCGAAUUCUGCAGUAUAUCUC [A15G A18G U41C U48C U72A] the value was 0.08. For UAACAGGGGGCCACCGCAGAGGCGUUCACGUCGCAGCCCCUGUCAGAUUCUGGUGAAUCUGCGAGUUCUGCUGUUUAUCUC [A15C A21G A65G A75U], the self-cleavage is 0.06. As for UAACAGGGGGCCACCGCAGAAGCGUUCACGUCGCUGCCCCUGUCAGAUACCGGUGAAUCUGCGAAUUCUGCUGUAUAUCUU [A15C A35U U49A U51C C81U], the self-cleavage stood at 0.34. To UAACAGGGGGCCACCGCAGAGGCGAUCACGUCGCAGCCCCUGUCAGUUUCUGGUGAAUCUGCGAAUUCUGCUGUAUAUCUC [A15C A21G U25A A47U] belongs 0.22.

Consider UAACAGGGGGCCACCUCAGAAGCGUACACGUCGCAGCCCCCGUCAGAUUCUGGUGAAUCUGCGAAUUCUGCUGUAUACCUC [A15C G16U U26A U41C U78C], for which the self-cleavage worked out at 0.38. For UAACAGGGGGCCACCGCGGAAGCGUUCACGUCGCAGCCCCAGUCAGAUUCUGGUGAAUCUGCGAAUUCUGCUGUAUAUCUC [A15C A18G U41A] the value was 0.27; for UAACAGGGGGCCAUAGCAGAAGCGUUCACGUCGCAGCCCCUGUCAGAUCCUGGUGAAUCUGCGUAUUCUGCUGUACAUCUC [C14U U49C A64U U76C], 0.11; for UAACAGGGGGCCACGGCUGAAGCGUUCGCGUCGCGGCCCCUGUCAGAUUCUGGUGAAUCUGCGAAUUCUGCUGUAUAUCUC [A15G A18U A28G A35G], 0.24. For UAACAGGGGGCCACCGCAGAGGCGUUCGCGCCGCAGCCCCUGUCAGAUUCUGGUGAAUCUGCGAACUCUGCUGUAUAUCUC [A15C A21G A28G U31C U66C] the value was 0.11. For UAACAGGGGGCCAUAGCAGAAGCGUUCACGCCGCAGCCCCUGUCAGAUCCAGGUGAAUCUGCGAAUUCUGCUGUAUAUCUC [C14U U31C U49C U51A] the value was 0.33. With UAACAGGGGGCCACGGCGGAAGCGUUCACGUCGCAGCCCCUGUCAGAUUCUGGUGUAUCUGCGAAUUCGGCUGUAUAUCUC [A15G A18G A56U U69G], the self-cleavage was determined as 0.08.

For UAACAGGGGGCCACCGCAGAAGCGUUCAUGUCGCAGCCCCUGUCAGACUCUGGUGAAUCUGCGAAUUCUGCCGUAAAUCUC [A15C C29U U48C U72C U76A], the self-cleavage amounted to 0.31.

With UAACAGGGGGCCACCGCAGAAGCGUUCACGUCGCAGCCCCAGUCAGACUCUGACGAAUCUGCGAAUUCUGCUGUAUAUCUC [A15C U41A U48C G53A U54C], the self-cleavage amounted to 0.59. For UAACAGGGGGCCACGGCGGAAGCGUUCACGUCGCAGCCCCUGUCACAUUCUGGUGAGUCUGCGAAUACUGCUGUAUAUCUC [A15G A18G G46C A57G U67A] the value was 0.21; for UAACAGGGGGCCAUAGCAGAAGCGUUCACGUCGCAGCCCCUGUCAGAUACUGGUGAAUCUGCGAAUUCUGCCGAAUAUCUC [C14U U49A U72C U74A], 1.1. To UAACAGGGGGCCACCGCAGAAGCGUUCACGUCGCAGCCCCUGUCAGUUUCUGGUGAAUCUGCGGAUUCUGCUGUAUAUCUC [A15C A47U A64G] belongs 0.19. To UAACAGGGGGCCACGGCGGAAGCGUUCACGUCGCAGCCCCUGUCAGAUUCAGGUGGAUCUGCGAAUUCUGCUGCAUAUCUC [A15G A18G U51A A56G U74C] belongs 0.11; to UAACAGGGGGCCACCGCAGAAGCGUUCACGUCGCGGCCCCUGUCAGGUUCCGGUGAAUCUGCGAGUUCUGCUGUAUAUCUC [A15C A35G A47G U51C A65G], 0.64.

Turning to UAACAGGGGGCCAUAGCAGAAGCGUUCACGUCGCAGCCCCUGUCAGAUUCUGGUGAAUCAGCGAAUUCCGCUGUAUAUCCC [C14U U60A U69C U80C], the self-cleavage is 0.34.

Regarding UAACAGGGGGCCAUAGCAGAAGCGUUCACGUCGCAGCCCCUGUCAGAUUCUGGUGAAUCAGCGAAUUCUGCAGUAUAUCUC [C14U U60A U72A], the self-cleavage is 0.48. To UAACAGGGGGCCACCGCAGAAGCGUUCACGUCGCAGCCCCUGUCAGACUCUGGUGAAUCUGCGAAUACUGCUGUAUAUCUC [A15C U48C U67A] belongs 0.12. For UAACAGGGGGCCACCGCAGAAGCGUUCACGUCGCAGCCCCUGUCAGAUUCUGGUGAAUCUGCGAAUUUUGCUGAAUAUCUC [A15C C68U U74A] the value was 0.52; for UAACAGGGGGCCACGGCGGAAGCGUUCGCGUCGCAGGCCCUGUCAGAUUCUGGUGAAUCUGCGAAUUCUACUGUAUAUCUC [A15G A18G A28G C37G G70A], 0.31; for UAACAGGGGGCCACGGCGGUAGCGUUCACGUCGCAGUCCCUGUCAGAUUCUGGUGAAUCGGCGAAUCCUGCUGUAUAUCUC [A15G A18G A20U C37U U60G U67C], 0.08. On to UAACAGGGGGCCACCGCAGAAGCGUUCACGUAGCAGCCCCUGUCAGAUUCAGGUGAAUCUGCGAAUUCUGCUGUAUAUCUC [A15C C32A U51A], for which the self-cleavage was 0.04. To UAACAGGGGGCCACCGCAGAAGCGUCCACGUCGCAGCCCCUGUCAGAUUCUGGUGAAUCUGCGUAUUCUGCUGUAUAUCUC [A15C U26C A64U] belongs 0.15. To UAACAGGGGGCCACCGCAGAAGCGUUCACGUCGCGGCCCCUGUCAGAUUCUGGUGAAUCUGCGAAUUCUGCUGUAUUUCUC [A15C A35G A77U] belongs 1.15; to UAACAGGGGGCCACGGCGGAAGCGUUCUCGUCGCUGCCCCUGUCUGAUUCUGGUGAAUCAGCGAAUUCUGCUGUAUAUCUC [A15G A18G A28U A35U A45U U60A], 0.08.
